Substitutions are numbered along the chain they refer to. One block for each binder: values may come before it.
How the values were obtained:
human Claudin18.2 [1] = biological target: human Claudin18.2 (human); experiment: cell-based or functional assay
human Claudin18.2 [2] = biological target: T1, human Claudin18.2 (human); experiment: cell-based ELISA on fixed NUGC4 cells stably expressing Claudin18.2
T1 construct: also called hClaudin18.2; huClaudin18.2
Protocol: (§1) Cell-based ELISA assay was used to test the binding properties of the Claudin18.2 antibodies. The stably transfected Claudin18.2-expressing NUGC4 cells were cultured in a 96-well cell plate (Corning, 3599). When growing at 90% density, the cells were immobilized with 4% paraformaldehyde for 1 h. The plate was washed 3 times with PBST buffer (pH 7.4 PBS containing 0.05% Tween-20), and a PBS-diluted 5% skim milk (powdered skim milk from Brightdairy) blocking solution was added at 200 μL/well. The plate was incubated in a 37° C. incubator for 2.5 h or was let stand at 4° C. overnight (16-18 h) for blocking. After blocking, the blocking solution was removed. The plate was washed 3 times with the PBST buffer, and then a test antibody that was diluted with a sample diluent (pH 7.4 PBS containing 1% skim milk) to different concentrations was added at 50 μL/well. The plate was incubated in a 37° C. incubator for 2 h. […] The plate was incubated at 37° C. for 1 h. The plate was washed 6 times with PBST, and then TMB chromogenic substrate (KPL, 52-00-03) was added at 50 µL/well. The plate was incubated at room temperature for 10-15 min, and the reaction was terminated by adding 1 M H₂SO₄ at 50 μL/well. The absorbance at 450 nm was read using an MD Versa Max™ microplate reader, and the binding EC50 value of the Claudin18.2 antibody to Claudin18.2 was calculated.

human Claudin18.2 [3] = biological target: T1, human Claudin18.2; experiment: cell-based ELISA (absorbance at 450 nm) on fixed NUGC4 cells stably expressing Claudin18.2
Protocol: as §1

human Claudin18.2 [4] = biological target: T1, human Claudin18.2; experiment: cell-based or functional assay; remark: listed apart in the source
human Claudin18.2 [5] = biological target: T1, human Claudin18.2; experiment: flow cytometry on HEK293/hClaudin18.2 cells, Scatchard plot
Protocol: On the day of experiment, HEK293/hClaudin18.2 cells were collected into a U-bottomed 96-well plate at 1×10⁵ to 2×10⁵ cells per well. A human Claudin18.2 antibody that was 2× diluted serially (12 concentration points) from an initial concentration of 5 μg/mL was added, and the plate was incubated at 4° C. for 1 h. IMAB362 was used as a positive control, and a negative control with no antibody was also provided. The antibody was removed by centrifugation, and FITC anti-human IgG Fc antibody (200×) was added at 100 μL/well. The plate was incubated in the dark at 4° C. for 30 min and washed twice with PBS+2% FBS before flow cytometry analysis. BD FACS CantoII was started and preheated, and then the BD FACSDiva software was run to start a new experiment. […] The samples in the U-bottomed 96-well plate were tested at the saved voltage, and data were recorded. The experimental data were analyzed using Flowjo software to obtain a Geo mean, and an MESF-Geo Mean standard curve was fit according to the instructions for Quantum™ FITC-5 MESF Kit. The molar concentration of the human Claudin18.2 antibody bound to HEK293/hClaudin18.2 cells and the free antibody concentration were calculated according to the concentration fluorescence value of the FITC anti-human IgG Fc antibody, and the Bmax and the dissociation constant KD of the antibody were calculated through Scatchard plots.

B1: ADC-1 (antibody, human IgG1, kappa)
heavy: EVQLVQSGAEVKKPGASVKVSCKASGYTFTSYWMHWVRQAPGQRLEWMGMIHPNSGSTNYNEKFKGRVTITRDTSASTAYMELSSLRSEDTAVYYCARLKTGNSFDYWGQGTTVTVSS[… human IgG1 constant region …]
light: DIVLTQSPDSLAVSLGERATINCKSSQSLLNSGNQKNYLTWYQQKPGQPPKLLIYWASTRESGVPDRFSGSGSGTDFTLTISSLQAEDVAVYYCQNAYTYPFTFGQGTKLEIKRTVAAPSVFIFPPSDEQLKSGTASVVCLLNNFYPREAKVQWKVDNALQSGNSQESVTEQDSKDSTYSLSSTLTLSKADYEKHKVYACEVTHQGLSSPVTKSFNRGEC
modifications: compound 9-A coupled to sulfhydryl groups after TCEP reduction; mean drug loading n=6.8 per antibody; positions not given
in vitro cell killing EC50, NUGC4-claudin18.2 high expression cells (CellTiter-Glo) (human Claudin18.2 [1]): 1.3 nM | in vitro cell killing EC50, NUGC4-claudin18.2 moderate expression cells (CellTiter-Glo) (human Claudin18.2 [1]): 23.6 nM | in vitro cell killing Emax, NUGC4-claudin18.2 high expression cells (CellTiter-Glo) (human Claudin18.2 [1]): 91.5 | in vitro cell killing Emax, NUGC4-claudin18.2 low expression cells (CellTiter-Glo) (human Claudin18.2 [1]): 66.7

B2: h1901-6 (antibody, human IgG1, kappa)
heavy: EVQLVESGGGLVQPGGSLRLSCAASGFTFSDYGIHWVRQAPGKGLEWVAYISRGSSTIYYADTVKGRFTISRDNAKNSLYLQMTSLRAEDTAVYYCARGGYDTRNAMDYWGQGTTVTVSS[… human IgG1 constant region …]
light: B1 light with L4M, N22S, T40A, W56G, E61A, A97D, Y98L, T99Y, F102L
notes: Humanized antibody of mAb1901, L2 + H2, human IgG1/kappa
EC50 (human Claudin18.2 [2]): 0.091 nM | Emax (human Claudin18.2 [3]): 0.937

B3: ADC-7 (antibody, human IgG1, kappa)
heavy: B1 heavy
light: B1 light
modifications: compound 9-A coupled to sulfhydryl groups after TCEP reduction; mean drug loading n=4.25 per antibody; positions not given
in vitro cell killing EC50, NUGC4-claudin18.2 high expression cells (CellTiter-Glo) (human Claudin18.2 [1]): 3.9 nM | in vitro cell killing EC50, NUGC4-claudin18.2 low expression cells (CellTiter-Glo) (human Claudin18.2 [1]): 284 nM | in vitro cell killing Emax, NUGC4-claudin18.2 high expression cells (CellTiter-Glo) (human Claudin18.2 [1]): 88.5 | in vitro cell killing Emax, NUGC4-claudin18.2 low expression cells (CellTiter-Glo) (human Claudin18.2 [1]): 61.1

B4: ADC-8 (antibody, human IgG1, kappa)
heavy: B1 heavy
light: B1 light
modifications: compound 9-A coupled to sulfhydryl groups after TCEP reduction; mean drug loading n=7.01 per antibody; positions not given
in vitro cell killing EC50, NUGC4-claudin18.2 high expression cells (CellTiter-Glo) (human Claudin18.2 [1]): 1.3 nM | in vitro cell killing EC50, NUGC4-claudin18.2 low expression cells (CellTiter-Glo) (human Claudin18.2 [1]): 154 nM | in vitro cell killing Emax, NUGC4-claudin18.2 high expression cells (CellTiter-Glo) (human Claudin18.2 [1]): 97.2 | in vitro cell killing Emax, NUGC4-claudin18.2 low expression cells (CellTiter-Glo) (human Claudin18.2 [1]): 66.7

B5: h1902-6 (antibody, human IgG1, kappa)
heavy: B1 heavy with I70L, R72L, T74K
light: B1 light
notes: Humanized antibody of mAb1902, L12 + H12, human IgG1/kappa
EC50 (human Claudin18.2 [2]): 0.141 nM | Emax (human Claudin18.2 [3]): 0.78

B6: ADC-6 (antibody, human IgG1, kappa)
heavy: B1 heavy
light: B1 light
modifications: compound 9-A coupled to sulfhydryl groups after TCEP reduction; mean drug loading n=2.69 per antibody; positions not given
in vitro cell killing EC50, NUGC4-claudin18.2 high expression cells (CellTiter-Glo) (human Claudin18.2 [1]): 11 nM | in vitro cell killing EC50, NUGC4-claudin18.2 low expression cells (CellTiter-Glo) (human Claudin18.2 [1]): > 500 nM | in vitro cell killing Emax, NUGC4-claudin18.2 high expression cells (CellTiter-Glo) (human Claudin18.2 [1]): 78 | in vitro cell killing Emax, NUGC4-claudin18.2 low expression cells (CellTiter-Glo) (human Claudin18.2 [1]): 45.2

B8: h1901-4 (antibody, human IgG1, kappa)
heavy: B2 heavy with I70M
light: B1 light with L4M, T40A, W56G, E61A, A97D, Y98L, T99Y, F102L
notes: Humanized antibody of mAb1901, L1 + H4, human IgG1/kappa
EC50 (human Claudin18.2 [2]): 0.201 nM | Emax (human Claudin18.2 [3]): 0.986

B9: h1902-9 (antibody, human IgG1, kappa)
heavy: B1 heavy
light: B1 light with N22S
notes: Humanized antibody of mAb1902, L13 + H11, human IgG1/kappa
EC50 (human Claudin18.2 [2]): 0.137 nM | Emax (human Claudin18.2 [3]): 0.75

B10: h1902-3 (antibody, human IgG1, kappa)
heavy: B1 heavy with M48I, R67K, V68A, I70L, R72L, T74K
light: B1 light with L4M
notes: Humanized antibody of mAb1902, L11 + H13, human IgG1/kappa
EC50 (human Claudin18.2 [2]): 0.175 nM | Emax (human Claudin18.2 [3]): 0.84

B12: h1901-7 (antibody, human IgG1, kappa)
heavy: B2 heavy with V48I
light: B1 light with L4M, N22S, T40A, W56G, E61A, A97D, Y98L, T99Y, F102L
notes: Humanized antibody of mAb1901, L2 + H3, human IgG1/kappa
EC50 (human Claudin18.2 [2]): 0.166 nM | Emax (human Claudin18.2 [3]): 0.921

B14: h1901-3 (antibody, human IgG1, kappa)
heavy: B2 heavy with V48I
light: B1 light with L4M, T40A, W56G, E61A, A97D, Y98L, T99Y, F102L
notes: Humanized antibody of mAb1901, L1 + H3, human IgG1/kappa
EC50 (human Claudin18.2 [2]): 0.22 nM | Emax (human Claudin18.2 [3]): 1.11

B16: h1902-10 (antibody, human IgG1, kappa)
heavy: B1 heavy with I70L, R72L, T74K
light: B1 light with N22S
notes: Humanized antibody of mAb1902, L13 + H12, human IgG1/kappa
EC50 (human Claudin18.2 [2]): 0.133 nM | Emax (human Claudin18.2 [3]): 0.89

B18: h1902-8 (antibody, human IgG1, kappa)
heavy: B1 heavy with R38K, A40R, M48I, R67K, V68A, I70L, R72L, T74K
light: B1 light
notes: Humanized antibody of mAb1902, L12 + H14, human IgG1/kappa
EC50 (human Claudin18.2 [2]): 0.132 nM | Emax (human Claudin18.2 [3]): 0.89

More lines, in order of falling EC50 (human Claudin18.2 [2]), values ahead:

EC50 (human Claudin18.2 [2]): 0.121 nM | Emax (human Claudin18.2 [3]): 0.75
B7: h1902-7 (antibody, human IgG1, kappa)
heavy: B1 heavy with M48I, R67K, V68A, I70L, R72L, T74K
light: B1 light
notes: Humanized antibody of mAb1902, L12 + H13, human IgG1/kappa

EC50 (human Claudin18.2 [2]): 0.113 nM | Emax (human Claudin18.2 [3]): 0.87
B13: h1902-1 (antibody, human IgG1, kappa)
heavy: B1 heavy
light: B1 light with L4M

EC50 (human Claudin18.2 [2]): 0.107 nM | Emax (human Claudin18.2 [3]): 0.88
B19: h1902-2 (antibody, human IgG1, kappa)
heavy: B1 heavy with I70L, R72L, T74K
light: B1 light with L4M
notes: Humanized antibody of mAb1902, L11 + H12, human IgG1/kappa

ADCC effect, IC50 (FcrR3A-V158-NFAT-RE-Jurkat reporter; NUGC4 cells, high Claudin18.2 expression) (human Claudin18.2 [4]): 0.0322 µg/mL | ADCC effect, IC50 (FcrR3A-V158-NFAT-RE-Jurkat reporter; NUGC4 cells, low Claudin18.2 expression) (human Claudin18.2 [4]): 0.0355 µg/mL | ADCC effect, IC50 (FcrR3A-V158-NFAT-RE-Jurkat reporter; NUGC4 cells, moderate Claudin18.2 expression) (human Claudin18.2 [4]): 0.03 µg/mL | Kd (human Claudin18.2 [5]): 1.64 nM | EC50 (human Claudin18.2 [2]): 0.098 nM | Emax (human Claudin18.2 [3]): 0.9
B15: h1902-5 (antibody, human IgG1, kappa)
heavy: B1 heavy
light: B1 light
notes: Humanized antibody of mAb1902, L12 + H11, human IgG1/kappa

EC50 (human Claudin18.2 [2]): 0.091 nM | Emax (human Claudin18.2 [3]): 1.05
B20: h1901-8 (antibody, human IgG1, kappa)
heavy: B2 heavy with I70M
light: B1 light with L4M, N22S, T40A, W56G, E61A, A97D, Y98L, T99Y, F102L
notes: Humanized antibody of mAb1901, L2 + H4, human IgG1/kappa

EC50 (human Claudin18.2 [2]): 0.087 nM | Emax (human Claudin18.2 [3]): 0.82
B17: h1902-4 (antibody, human IgG1, kappa)
heavy: B1 heavy with R38K, A40R, M48I, R67K, V68A, I70L, R72L, T74K
light: B1 light with L4M
notes: Humanized antibody of mAb1902, L11 + H14, human IgG1/kappa

EC50 (human Claudin18.2 [2]): 0.076 nM | Emax (human Claudin18.2 [3]): 1.04
B11: h1901-2 (antibody, human IgG1, kappa)
heavy: B2 heavy
light: B1 light with L4M, T40A, W56G, E61A, A97D, Y98L, T99Y, F102L

— US20240024498A1 (JIANGSU HENGRUI PHARMACEUTICALS, published 2024)
